Among all 48,000 compounds or so, about 120 (0.25%) were called active. Not shown: some 4% with an inconclusive outcome. Calls come from the whole dose curve; as a rule, active = well fitted activation curve with a large enough effect; inconclusive = small, poorly fitted or top-dose-only effect, or another doubt; inactive = no such curve, though single readings can be large or run the other way. Some of the results follow.
assay: Primary qHTS for Identification of Small Molecule Activators of Huntingtin-Antisense Promoter Activity; conditions: HEK293 HTT-AS promoter firefly luciferase reporter, 24 h; series mostly up to 57.5 µM; activity change, positive = activation: at the top concentration; note: nearly all actives have a fitted effect of over 55% in size
Procedure, shortened: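 HEK293 Fluc reporter, 2,500 cells/well, 24 h pre-culture; cpds up to 57.5 uM final, 24 h 37 degrees C; Dual-Glo, 10 min RT; normalized vehicle = 0%, zero RLU = -100%.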

Activity change, positive = activation, inactive:
CCOc1ccc(C(=O)Cn2c(=O)n3nc(CCn4nc(C)cc4C)nc3c3cc(OC)c(OC)cc32)cc1 -18.8%
Cc1ccccc1N1CCN(S(=O)(=O)c2nnc(NC(=O)c3ccc(C(C)C)cc3)s2)CC1 -20.1%
COc1cc(NC(=O)c2cc(C3CC3)nc3c2c(C)nn3-c2ccccc2)cc(OC)c1 -34.4%
COC(=O)Cn1c(=O)c2cccn2c2ccc(F)cc21 -14.7%
CCCCCn1c(NCc2ccc(OC)cc2)nc2ccccc21 -38.1%
CCS(=O)(=O)N1CCCC(C(=O)NCCOC)C1 (centres undefined) -7.28%
Cc1ccc(NC(=O)CSc2nnc(-c3ccc([N+](=O)[O-])cc3)o2)c(C)c1 4.11%
Cc1ccc(C(=O)c2cn(CC(=O)Nc3ccc(C(C)C)cc3)c3nc(C)ccc3c2=O)cc1 -9%
Cc1cc(C)n(-c2nc3ccccc3nc2Nc2ccc(N(C)C)cc2)n1 3.67%
COc1ccc(-n2nc(C(=O)Nc3ccccn3)c3c4ccccc4n(C)c3c2=O)cc1 -8.99%
COc1ccccc1OC(C)C(=O)Nc1cccc(-c2nc3ccccc3s2)c1 (centres undefined) 9.12%
CCOC(=O)c1ccc(NC(=O)c2cnc3c(-c4ccc(F)cc4)c(C)nn3c2C)cc1 -1.04%
CCOc1ccc(-c2nc3c(c(SCC(=O)Nc4ccccc4C)n2)Cc2ccccc2O3)cc1 13.4%
Cc1ccccc1NC(=O)CC(NCc1cccnc1)C(=O)O (centres undefined) -0.616%
Cc1cc(C)cc(NC(=O)Cn2c(-c3cncs3)nc3ccccc32)c1 -16.9%
COc1ccc(NC(=O)CN2C(=O)CCn3nc(-c4cccn4C)cc32)cc1Cl -21.9%
O=S(=O)(c1ccc(-c2cc(C(F)(F)F)on2)s1)N1CCN(c2ccccc2F)CC1 -10.6%
COC(=O)c1ccccc1NC(=O)c1cc(-c2ccccc2O)no1 -21.6%
CC(=O)Nc1nonc1-c1nnc(SCC(=O)Nc2ccc(C)cc2)n1-c1ccccc1 -14.3%
CCOC(=O)c1sc2cccc(F)c2c1S(=O)(=O)NCc1ccccc1Cl -29.1%
COc1ccc(-c2cc(-c3ccccc3)c(C#N)c(SCC(O)CS(=O)(=O)Cc3ccc(Cl)cc3)n2)cc1 (centres undefined) -15.7%
O=C(CS(=O)(=O)c1cccc2nsnc12)N1CCN(c2cccc(Cl)c2)CC1 -18.1%
CCCN1CCN(c2ncnc3sc(C(=O)Nc4ccc(C(C)C)cc4)c(C)c23)CC1 -8.91%
COc1cc(SC)ccc1C(=O)Nc1ccc(S(=O)(=O)Nc2nccc(C)n2)cc1 1.32%
COc1cccc(N2CCN(C(=O)c3ccc(C)c(NC(=O)c4nsc5ccccc45)c3)CC2)c1 3.06%
Cc1ccc(C(c2sc3nc(-c4ccco4)nn3c2O)N2CCCC2)cc1 (centres undefined) -6.68%
Cc1ccc(N(CC(=O)NCCc2ccc(Cl)cc2)S(=O)(=O)c2c(C)noc2C)cc1 -30.8%
COc1ccc(CN2CCc3c(c(=O)n4ncc(C(=O)N5CCN(c6ccccc6OC)CC5)c4n3C)C2)cc1 -87.6%
Cc1cccc(NC(=O)Cn2nnc(-c3nc(-c4ccncc4)no3)c2N)c1 3.82%
CC(C)OC(=O)C(C)(C)Oc1ccc(C(=O)c2ccc(Cl)cc2)cc1 -12.1%
Cc1ccc(NC(=O)CN2C(=O)c3ccccc3Sc3ccc(C(=O)N4CCOCC4)cc32)cc1F -28.3%
CCc1ccc(-n2c(=O)c3c4c(sc3n(CC(=O)c3ccc(F)cc3)c2=O)CCC4)cc1 -7.14%
COc1ccc(-c2ccc3c(N)c(C(=O)c4ccc(OC)c(OC)c4)sc3n2)cc1 -14.4%
CCC(C)NC(=O)CCCN1C(=O)CCn2nc(-c3cccn3C)cc21 (centres undefined) 8.18%
CCc1cccc(NC(=O)COC(=O)c2cn(CC)c3nc(C)ccc3c2=O)c1 -2.35%
COc1ccc(CNC(=O)c2ccc(-c3nc(CSc4ccccc4)c(C)o3)cc2)cc1OC 6.33%
COc1ccc(CNC(=O)CSCc2nc(-c3ccccc3C)oc2C)cc1 -8.13%
CCCc1cc(=O)[nH]c(SCC(=O)N2CCN(c3ccccc3)CC2)n1 -23.5%
COc1ccccc1C(=O)Nc1ccccc1OCc1cc(=O)n2c(C)csc2n1 2.52%
CC(C)c1nn2c(=O)cc(COC(=O)c3ccc(NC(=O)COc4ccccc4)cc3)nc2s1 -2.5%
CCN(CC)S(=O)(=O)c1cccc(C(=O)Nc2ccccc2C(=O)Nc2ccc(Cl)cc2)c1 -19.6%
Cc1ccc(-n2c(/C=C/c3c(C)n(C)c4ccccc34)nc3ccccc3c2=O)cc1 19.2%
Cc1ccc(C)c(NS(=O)(=O)c2cc3c(cc2C)n(C)c(=O)c(=O)n3C)c1 -12.7%
CCOC(=O)c1c(NC(=O)Cc2coc3cc(C)cc(C)c23)sc2c1CCC2 -16.6%
CC(=O)c1ccc(NC(=O)c2cc(C)nn2-c2ccccc2)cc1 9.78%
COCCN(CCOC)S(=O)(=O)c1ccc(C(=O)Nc2sc3c(c2C(=O)OC)CCN(C)C3)cc1 -11.4%
Cc1ccc(NC(=O)c2cc(S(=O)(=O)N3CCC4(CC3)OCCO4)ccc2F)cc1Cl -28.9%
CCOc1cccc(C(=O)Nc2ccc(-c3nc4ncccc4o3)cc2C)c1 14.3%
CCOC(=O)c1ccccc1NC(=O)c1sc2nc3n(c(=O)c2c1C)CCCCC3 -12.1%
CN(C)S(=O)(=O)N(CC(=O)NCCSCc1c(F)cccc1Cl)c1ccccc1 -20.9%
COC(=O)c1c(NC(C)=O)c2c3c(sc2n1Cc1cc(C)ccc1C)CCCC3 -7.73%
CCCN1CCN(CCCNC(=O)c2cc3c(=O)n(CC)c4ccccc4c3s2)CC1 -10.7%
O=c1[nH]c(SCc2c(F)cccc2Cl)nc2c1CCC2 -13.4%
Cc1ccc(-n2c(SCc3ccccc3F)nc3[nH]ncc3c2=O)cc1Cl -37%
CCc1cccc(NC(=O)Cn2c(C(=O)OC)cc3sc(Cl)cc32)c1 -5.82%
CCN(CC)CCNC(=O)C1CCN(C(=O)c2cnn(-c3ccccc3)c2-n2cccc2)CC1 -7.45%
COCCc1ccccn1 -10.9%
Cc1ccc(NC(=O)CSc2nc(=O)cc(N)n2-c2ccccc2)cc1 -14.2%
Cc1ccc2nc(NC(=O)CSc3[nH]c(=O)ncc3C)sc2c1 26.8%
CCOC(=O)N1CCc2c(sc3c2C(=O)NC(c2ccc(N(C)C)cc2)N3)C1 (centres undefined) -28.1%
CC[C@H]1OC(=O)[C@H](C)[C@@H](O[C@H]2C[C@@](C)(OC)[C@@H](O)[C@H](C)O2)[C@H](C)[C@@H](O[C@@H]2O[C@H](C)C[C@H](N(C)C)[C@H]2O)[C@](C)(O)C[C@H](C)C(=NOCOCCOC)[C@H](C)[C@@H](O)[C@]1(C)O -17.8%
CCCCOc1ccc(C2c3c(oc4ccc(C)cc4c3=O)C(=O)N2CCCN(C)C)cc1OCC (centres undefined) 1.39%
CNC[C@@H](O)[C@@H](O)[C@H](O)[C@H](O)CO 0.694%
CC(=O)NCCNC(=O)CCCn1c(=O)[nH]c2ccsc2c1=O 4.37%
CC(=O)Nc1ccc(/C=C/c2noc(-c3ccccc3O)n2)cc1 29.5%
CCOC(=O)CSc1nc(-c2ccc(OCC)cc2)cc(C(F)(F)F)c1C#N -7.52%
CC(=O)c1ccc(N2CCN(S(=O)(=O)c3cc4[nH]c(=O)c(=O)[nH]c4cc3C)CC2)cc1 4.45%
COc1ccccc1CNC(=O)C(=O)NCC(c1cccs1)S(=O)(=O)c1ccccc1 (centres undefined) -34.1%
CCc1nnc(NC(=O)c2cc(=O)c3cc(C)ccc3o2)s1 6.87% [at 11.5 µM, percent change from vehicle, -100% = no light]
CCN1C[C@H](C)n2c(c(O)c3c(=O)n(Cc4ccc(F)c(Cl)c4)nc(C(=O)NC)c32)C1=O 17.6%
Cc1ccc(C)c(N2CCN(C(=O)Cn3cnc4onc(-c5ccc(F)cc5)c4c3=O)CC2)c1 -12.5%
O=C(O)c1ccccc1S -5.62%
Cc1ccc2oc(=O)c3cc(C(=O)NCCCOC(C)C)sc3c2c1 2.81%
COc1ccc(C(=O)c2oc3ccccc3c2NC(=O)c2cc(=O)c3ccc(C)cc3o2)cc1Cl -18%
Cc1ccc(S(=O)(=O)CC(=O)Nc2nc3c(C)cc(C)cc3s2)cc1 -10.7%
Cc1cccc(C(=O)Nc2nnc(S(=O)(=O)N(C)Cc3ccccc3)s2)c1 -16.8%
CCOc1ccc(-c2cccc(NS(=O)(=O)c3ccc(F)cc3F)c2)nn1 -10.7%
COc1ccc(-c2noc(CNC(=O)c3ccccc3Br)n2)cc1 -22.2%
COc1cccc(NC(=O)c2cccc3c(=O)c4c([nH]c23)CCCC4)c1 -36.6%
CCCOc1ccc(C2c3c(-c4ccccc4O)n[nH]c3C(=O)N2CCc2ccccc2)cc1OCC (centres undefined) -32.7%
CCOc1ccc2ncc3c(-c4ccc(C)cc4)nn(-c4cccc(F)c4)c3c2c1 -13.6%
CCOc1ccc(OCC)c(NC(=O)c2cc(S(=O)(=O)N3CCc4ccccc43)cn2C)c1 -21.6%
CC(=O)c1c(C)c2cnc(Nc3ccc(N4CCNCC4)cn3)nc2n(C2CCCC2)c1=O -31.4%
COc1ccc(-c2nc3c(c(SCC(=O)N4CCCCC4)n2)Cc2cc(C)ccc2O3)cc1 4.33%
Cc1ccc(S(=O)(=O)NCC(c2ccco2)N2CCOCC2)cc1 (centres undefined) -12.1%
O=S(=O)(c1cccc(Cl)c1)c1nnn2c1nc(NCc1ccc3c(c1)OCO3)c1sccc12 -37.5%
CCS(=O)(=O)N1CCCc2cc(C(=O)Nc3cccc(C(C)=O)c3)ccc21 -29.7%
COc1cc(NC(=O)c2cccc(Cl)c2Cl)ccc1NC(=O)c1cc2ccccc2o1 -27.3%
CCC(=O)N1CCc2cc(Br)cc(S(=O)(=O)CCC(=O)Nc3cccc(Cl)c3)c21 3.37%
CCCn1c2ccc(F)cc2c2nnc(SCCN3CCCCC3)nc21 -20.8%
CCCc1cnc2c(c1SCC(=O)Nc1ccccc1OCC)c(=O)n(C)c(=O)n2C -13.2%
Clc1ccc(-c2nnn3c2nc(NC2CCCCC2)c2ccccc23)cc1 -2.97%
CCOc1ccc(Nc2ncnc3c2c(-c2ccccc2)cn3-c2cccc(C)c2)cc1 -10.9%
CCOc1ccc(C(=O)N(Cc2ccc(C(C)C)cc2)Cc2ccco2)cc1 -17.4%

Source: PubChem BioAssay AID1508624 (National Center for Advancing Translational Sciences (NCATS), 2021)
